Source: PubChem BioAssay (NCATS)
Inconclusive means that the source gave no clear call. Such entries were picked first, then a sample of the others. For some assays here: Potencies of inconclusive entries are left out as doubtful fits. Activity calls are given as the source filed them. The call rests on the fitted dose curve; in most records, active means well fitted curve in the direction sought with a large enough effect; inconclusive means small, poorly fitted or top-dose-only effect, or another doubt; inactive means no such curve, though single readings can be large; an effect the other way counts as inactive or inconclusive.

Columns and labels:
[1] = qHTS of pediatric cancer cell lines to identify multiple opportunities for drug repurposing: Primary screen for OHS-50 cells (AID 1347103); further: potency means the concentration at half of the fitted maximal effect; nearly all actives have a fitted effect of over 40% in size
Procedure, shortened: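 Cells (500-1,000/well) rested 5 h, then received compounds for 48 h; metabolically active cells were measured by CellTiter-Glo luminescence. Final concentrations spanned up to 46 µM (MIPE, 11-point) or 0.59 nM-46 µM (NPC, 8-point) in primary screens, 11-point in follow-ups.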

[2] = Quantitative High-Throughput drug screen in 47 multiple myeloma cell lines against the NCATS MIPE library collection: KHM11_PLB cell viability assay (AID 1918962); further: nearly all actives have a fitted effect of over 35% in size
Procedure, shortened: (§1)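 Myeloma cell lines, 500 cells per well, exposed to MIPE 4.0 library compounds for 48 h at 37C, 5% CO2. Viability from ATP by CellTiter-Glo luminescence; normalised to DMSO (100%) and media-only (0%) wells.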

[3] = Quantitative High-Throughput drug screen in 47 multiple myeloma cell lines against the NCATS MIPE library collection: JIM1_ECACC cell viability assay (AID 1918964; further: potency means the concentration at half of the fitted maximal effect)
Procedure, shortened: (§2)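 CellTiter-Glo luminescence (ATP) after 48 h compound exposure, 37C/5% CO2; 500 cells/well; MIPE 4.0 approved/investigational drugs pinned in; DMSO = 100%, media only = 0% viability.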

[4] = Quantitative High-Throughput drug screen in 47 multiple myeloma cell lines against the NCATS MIPE library collection: INA6_PLB cell viability assay (AID 1918965; further: nearly all actives have a fitted effect of over 55% in size; further: potency means the concentration at half of the fitted maximal effect)
Procedure, shortened: as §1

[5] = Quantitative High-Throughput drug screen in 47 multiple myeloma cell lines against the NCATS MIPE library collection: JJN3_DSMZ cell viability assay (AID 1918966; further: potency means the concentration at half of the fitted maximal effect; nearly all actives have a fitted effect of over 50% in size)
Procedure, shortened: as §2

[6] = Quantitative High-Throughput drug screen in 47 multiple myeloma cell lines against the NCATS MIPE library collection: KMS20_JCRB cell viability assay (AID 1918973); further: nearly all actives have a fitted effect of over 45% in size; further: potency means the concentration at half of the fitted maximal effect
Procedure, shortened: as §2

[7] = Quantitative High-Throughput drug screen in 47 multiple myeloma cell lines against the NCATS MIPE library collection: MMM1_PLB cell viability assay (AID 1918976); conditions: MMM1 myeloma cells viability, CellTiter-Glo, 48 h; further: potency means the concentration at half of the fitted maximal effect; nearly all actives have a fitted effect of over 35% in size
Procedure, shortened: (§3)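 500 cells/well per myeloma line exposed to pinned MIPE 4.0 compounds for 48 h at 37 °C, 5% CO2. Viability read as ATP by CellTiter-Glo luminescence, normalised to DMSO-only (100%) and media-only (0%) wells.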

[8] = Quantitative High-Throughput drug screen in 47 multiple myeloma cell lines against the NCATS MIPE library collection: L363_DSMZ cell viability assay (AID 1918984); further: nearly all actives have a fitted effect of over 40% in size; further: potency means the concentration at half of the fitted maximal effect
Procedure, shortened: as §3

[9] = Quantitative High-Throughput drug screen in 47 multiple myeloma cell lines against the NCATS MIPE library collection: OCIMY7_PLB cell viability assay (AID 1918987); further: nearly all actives have a fitted effect of over 65% in size; further: potency means the concentration at half of the fitted maximal effect
Procedure, shortened: as §3

[10] = Quantitative High-Throughput drug screen in 47 multiple myeloma cell lines against the NCATS MIPE library collection: VP6_DJ cell viability assay (AID 1919867); further: nearly all actives have a fitted effect of over 40% in size; further: potency means the concentration at half of the fitted maximal effect
Procedure, shortened: as §3

[11] = Quantitative High-Throughput drug screen in 47 multiple myeloma cell lines against the NCATS MIPE library collection: UTMC2_PLB cell viability assay (AID 1919868); further: nearly all actives have a fitted effect of over 55% in size; further: potency means the concentration at half of the fitted maximal effect
Procedure, shortened: as §3

[12] = molecular target: Chromobox protein homolog 1 (Homo sapiens) (UniProt P83916); assay: qHTS Validation Assay for Inhibitors of HP1-beta Chromodomain Interactions with Methylated Histone Tails (AID 488953);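 further: loss of AlphaScreen luminescence from HP1-beta binding biotinylated H3K9me3 peptide; series mostly up to about 110 µM; nearly all actives have a fitted effect of over 50% in size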
Sequence of UniProt P83916 (P83916 whole entry, looked up): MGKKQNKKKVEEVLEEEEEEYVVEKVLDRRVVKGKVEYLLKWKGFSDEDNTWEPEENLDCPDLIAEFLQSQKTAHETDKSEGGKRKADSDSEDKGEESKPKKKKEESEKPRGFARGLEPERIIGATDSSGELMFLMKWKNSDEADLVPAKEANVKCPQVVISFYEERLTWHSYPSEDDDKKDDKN
Procedure, shortened: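 50 nM HP1-beta + 50 nM biotin-H3(1-18)K9me3, PBS pH 7.4, 0.01% Tween-20, 30 min RT; compound added, 30 min RT; AlphaScreen beads 10 ug/mL final, 30 min dark; luminescence read.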

[13] = Quantitative High-Throughput drug screen in 47 multiple myeloma cell lines against the NCATS MIPE library collection: AMO1_DSMZ cell viability assay (AID 1918927; further: potency means the concentration at half of the fitted maximal effect; nearly all actives have a fitted effect of over 30% in size)
Procedure, shortened: as §2
Tags describe the fitted curve by direction and shape.

SMILES | Potency [1] | Potency [2] | Potency [3] | Potency [4] | Potency [5] | Potency [6] | Potency [7] | Potency [8] | Potency [9] | Potency [10] | Potency [11] | Potency [12] | Potency [13]
CC(=O)OCC(=O)[C@@]12OC(C)(C)O[C@H]1C[C@H]1[C@@H]3C[C@H](F)C4=CC(=O)C=C[C@]4(C)[C@@]3(F)[C@@H](O)C[C@@]12C | inconclusive [cytotoxic, single point] | inactive | inactive | inconclusive [cytotoxic, partial curve, poor fit] | inconclusive [rising, full curve, poor fit] | inactive | inconclusive [rising, full curve, poor fit] | inactive | inactive | inconclusive [cytotoxic, partial curve, poor fit] | inconclusive [cytotoxic, full curve, poor fit] |  | 
CC(N)(Cc1ccc(O)cc1)C(=O)O (stereo not drawn) |  |  |  |  |  |  |  |  |  |  |  | inactive | 
CC(=O)C1=C(O)C=C2Oc3c(C(C)=O)c(O)c(C)c(O)c3C2(C)C1=O (stereo not drawn) |  | inactive | inconclusive [cytotoxic, partial curve, poor fit] | inactive | inconclusive [rising, full curve, poor fit] | inconclusive [rising, partial curve, poor fit] | inconclusive [rising, full curve] | inconclusive [cytotoxic, partial curve] | inconclusive [cytotoxic, single point] | inactive | inactive |  | inconclusive
